Test results as given in article PMC5515408.
Some of the results follow. At the low end of the ranking the order means little.

The sequences below were run on MYC (p64) + MAX (p21), in MYC:MAX (assay: protein-binding microarray (anti-MAX antibody)). Details: PBM: 15 mM Tris-HCl pH 7.5, 100 mM KCl, 0.075% NP40, 7.5 mM beta-mercaptoethanol, 375 ng/ul BSA, 8 ng/ul poly(dA-dT):(dA-dT), 550 ng complex, 60 min, room …; high values mean tight binding; double strand, one strand shown; sequences stand for … in CCGGC…TTAATAGCTAAGATTACTATATCGACG.

Sequence | binding signal (log2 normalized fluorescence)
TGTCACTTGGTA | 0.295
TGAAAGCACGTA | 0.323
TGAGCCAGGGTA | -0.17
TGACCCGTGGTT | 0.466
TGACTGCTAGTA | 0.193
TGAGAGCTAGTA | -0.13
TGACGCGCGGTG | 0.426
TGACATTTGGTA | 0.272
TGAGTCGAAGTA | 0.000133
TGAGGATCGGTA | -0.0667
TGGAACGTCGTA | 0.17
TGACGGGAAGTA | -0.0847
TGAGAGGTAGTA | -0.0303
TGACCCTATGTA | 0.363
TGAGCTCAGGTA | 0.0195
TGACACGTGTTA | 0.722
TGAATTAGGGTA | -0.045
TGAGATAGCGTA | -0.0662
TGATTACACGTA | 0.293
TGAAATCACGTA | 0.167
TGAATGTTGGTA | 0.176
TGAGCTATTGTA | -0.126
TGACGAACTGTA | 0.121
TGAAGTTTGGTA | -0.221
TGAGGCCCAGTA | -0.151

Sequence | binding signal (log2 normalized fluorescence)
TGATGGACTGTA | 0.0489
TGATCGGGAGTA | -0.148
TGAGCTCCCGTA | 0.0359
TAACACGTTGTA | 0.657
TGAACACACGTA | 0.419
TGAGCTCCTGTA | -0.0311
TGATTACAAGTA | -0.132
GGACACGTGGTA | 0.99
TGTAGCGTGGTA | 0.575
TGAAGCTATGTA | -0.0292
TGAACCTTCGTA | 0.116
TGATGTGACGTA | 0.137
TGAGCTGTTGTA | 0.000703
TGACTCACTGTA | 0.273
TGATGGATCGTA | 0.179
TGAAGATGCGTA | 0.239
TGAGAATAGGTA | -0.0885
TGACACATGATA | 0.672
TGATCCTCAGTA | 0.0915
TGATCCCTTGTA | -0.107
TGGAACGTGGTA | 0.66
TGACACCGCGTA | 0.321
TGATCAGGGGTA | 0.0821
TGAATTCGCGTA | 0.0623
TGATTCGATGTA | 0.0201

Sequence | binding signal (log2 normalized fluorescence)
TGAGCCTCAGTA | -0.0956
TGAGGTTTTGTA | -0.0971
TGATACGGGGGA | 0.672
TGACTGCCTGTA | 0.152
AGACTCGTCGTA | 0.143
TGACAGGTCGTA | 0.0841
TGAGAAAGGGTA | -0.082
TGAGGTTCAGTA | -0.0291
TGAAATTGCGTA | 0.115
TGACGCGTGGTT | 0.661
TGAAATATAGTA | -0.0156
TGACCCAGTGTA | 0.103
TGACTTATCGTA | -0.0604
TGAGCCTGTGTA | 0.065
TGAACGTCTGTA | 0.123
TGAGTTCTGGTA | -0.132
TGAGAGTACGTA | 0.142
TGAGAGGTGTTA | 0.194
TGACTCGAAGTA | 0.0717
TGAACCATCGTA | 0.111
TGAAGTGGCGTA | 0.0262
TGAACTCTTGTA | 0.0117
TGACTTTCAGTA | 0.00299
TGACGACCGGTA | 0.189
TGATGCCGCGTA | 0.213

Sequence | binding signal (log2 normalized fluorescence)
GTTCAGCAAAAA | 0.0818
TGAGTCAGTGTA | -0.00919
TGAGACTTGGTA | -0.113
TGACCCTAGGTA | 0.0102
TGACCCACGGTA | 0.324
TGAAGCGTGGTA | 0.493
TGAGGAGACGTA | -0.254
TGAACACGTGTA | 0.823
TGAATCGCAGTA | 0.0744
TGACTGGCCGTA | -0.101
TGAAACTTAGTA | -0.0447
TGACCACCGGTA | 0.242
TGACTGTCGGTA | -0.00785
TGAACACTCGTA | 0.367
TGAGGTACAGTA | -0.153
TGAGTAGTGGTA | 0.0775
TGATAGTCCGTA | -0.174
TGACGTTCGGTA | 0.0304
GCACACGTGCTA | 0.875
TGAGTCTGTGTA | -0.172
TGACCTCTAGTA | 0.121
TGATATATGGTA | 0.0426
TGACACGGCTTA | 0.363
TGCCACGCGGTG | 0.624
TGATTGAGTGTA | 0.0168

Sequence | binding signal (log2 normalized fluorescence)
TGACTCATAGTA | 0.0518
TGATGTTCTGTA | 0.261
TGATTATTGGTA | -0.194
TGAAGCCGCGTA | 0.0198
TGACCCCTAGTA | 0.0218
TGAACCCTAGTA | 0.0504
TGAAGAGGTGTA | 0.118
TGAAAGTCTGTA | -0.0281
TGACTGCCAGTA | 0.0238
TGACCGGGTGTA | 0.119
TGAGCGACAGTA | 0.11
TGAATTAAGGTA | -0.0295
TGAGTTGGGGTA | 0.0302
TTACAGGTAGTA | 0.156
AGATACGTGGTG | 0.257
TGAGCGATTGTA | -0.104
TGAATGCTTGTA | 0.233
TGAGGAAAAGTA | -0.187
TGATCCCCCGTA | 0.0512
TGAGCTGCAGTA | -0.169
TGACACGCATTA | 0.524
TGACCAGCCGTA | 0.12
TGAGAACACGTA | 0.318
TGACTAAGTGTA | -0.0582
CGACATGTGGTG | 0.638

Sequence | binding signal (log2 normalized fluorescence)
TGAACTCTCGTA | -0.0364
TGACGGCCTGTA | 0.0109
TGACAGCGGGTA | -0.0723
TGAGAAAAGGTA | 0.0195
TGAACCCTGGTA | 0.00686
TGACCGAAGGTA | 0.0504
TGAATCCATGTA | 0.305
TGACCGTAGGTA | -0.0788
TGACTATGTGTA | 0.079
GCACACTTGGTA | 0.58
TGAATGGAGGTA | 0.266
TGATAAAATGTA | 0.0256
TGACACGCCTTA | 0.466
TGATATCGTGTA | 0.333
TGAACTATTGTA | 0.00865
TGAGCCATTGTA | -0.00154
TGAACACCAGTA | 0.303
TGAAATGGGGTA | 0.214
TGAAGGTTCGTA | -0.0599
TGACGTTGGGTA | 0.144
TGATTACGTGTA | 0.187
TGAAGAGCAGTA | 0.0321
TGACACGAGTTA | 0.553
TGACCACCTGTA | 0.421
TGAGCGCGAGTA | 0.375

Sequence | binding signal (log2 normalized fluorescence)
TGAACGAGAGTA | 0.125
TGACCAGCTGTA | 0.185
TGACCTAAAGTA | 0.15
TGAAATCAGGTA | -0.123
TGAATCTGAGTA | -0.0604
TGAGGTGTAGTA | -0.131
TGAGAAACAGTA | 0.0392
TGACTTCTTGTA | 0.0042
TGACGATCTGTA | 0.00723
TGATGCCCCGTA | 0.0177
TGACATCTAGTA | -0.109
TGAGGGCGAGTA | 0.166
TGACAAGTGGAG | 0.167
TGAGAGACAGTA | 0.00807
TGACTGTTGGTA | -0.0898
TGACTAGCCGTA | -0.128
TGATTCCTAGTA | -0.0645
TGAGCGAATGTA | 0.092
TGAGGAGTAGTA | -0.213
TGAGACTTGCTA | 0.0728
TGATCGACAGTA | 0.0775
TGAGCATAGGTA | -0.0632
TGATCAGGCGTA | 0.0233
TGACACGCGGTA | 0.487
TGATACGTGGTA | 0.341

Sequence | binding signal (log2 normalized fluorescence)
TGACTCGTGTTA | 0.481
TGATACATCGTA | 0.0178
TGAGCTCTCGTA | -0.0629
TGATGAGGAGTA | -0.0631
TGAGTTAAGGTA | 0.0434
TGAGCTACTGTA | -0.0859
TGAACCTCTGTA | 0.177
TGAGATGGAGTA | -0.137
TGAAAGAAAGTA | 0.0142
TGATAGCGTGTA | 0.398
TGAGCTAGTGTA | -0.0796
TGACCCGAGGTA | 0.226
TGATGTCCGGTA | 0.165
TGATGCGCAGTA | 0.0262
TGAAGATGGGTA | 0.0158
TGAGCTTAGGTA | -0.222
TGATCCCGCGTA | 0.218
TGAGCCCCCGTA | -0.0648
TGAGGTGTTGTA | -0.106
TGATTCGTAGTA | -0.167
TGAAACTATGTA | 0.0039
TGAGTGTAGGTA | -0.0466
TGAGTCCCGGTA | -0.0764
TGATTCACAGTA | 0.0373
TGATTCTTAGTA | -0.0367

Sequence | binding signal (log2 normalized fluorescence)
TGACGCGGGGTA | 0.442
TGAGCGCGTGTA | 0.355
TGATACGTGGTG | 0.387
TGAGCTACAGTA | -0.0596
GGACCCGTGGTA | 0.439
TGAGGCTAAGTA | -0.107
TGATGTTAAGTA | -0.00788
TGAGCCACTGTA | 0.0362
TGATCAGCAGTA | -0.0801
TGAAATTTCGTA | -0.0261
TGACTCACCGTA | 0.291
TGAGGACTAGTA | -0.08
TGTCACGTGATA | 0.587
TGACTGATTGTA | 0.0339
TGAACAAATGTA | 0.269
TGACTAAACGTA | 0.0986
TGAGGTGGAGTA | 0.108
TGAGCCGGTGTA | -0.0404
TGATAGCGCGTA | 0.187
TGACAAGCAGTA | 0.112
TGAGTCATTGTA | 0.0871
TGAGCAGAAGTA | 0.0465
TGATGAATAGTA | -0.0731
TGATAGAGCGTA | -0.0413
TGAGCCAAAGTA | -0.0525

Sequence | binding signal (log2 normalized fluorescence)
TGAAGGACTGTA | 0.0114
TGAGCGCCAGTA | 0.166
TGACAGGGGGTA | 0.571
TGAACATGTGTA | 0.64
TGAAAGCAAGTA | 0.19
TGAAAGGGTGTA | 0.202
TGAATCCGTGTA | 0.0875
TGAACAATCGTA | 0.0239
TGAACCGCAGTA | 0.107
TGGCACGAGGTA | 0.538
GGACAGGTGGGA | 0.375
TGACAGGTAGTA | 0.0737
TGATGGTTGGTA | -0.00829
TGAGTCCCCGTA | 0.119
TGAGTGATAGTA | -0.0647
TGACGAGCTGTA | 0.0143
TGATATTCTGTA | -0.104
TGAGAAAGTGTA | 0.13
TGAATAGACGTA | 0.0122
TGACACTTGGTT | 0.146
TGAACTCGGGTA | -0.0107
TGAACTACCGTA | 0.12
TGAGGCGCGGTA | 0.347
TGAGGGTAGGTA | 0.0237
TGAACCAAGGTA | 0.057

Sequence | binding signal (log2 normalized fluorescence)
TGAATCGCTGTA | 0.0414
TGATGCTAGGTA | 0.102
TGAGTTAGGGTA | -0.0548
TGACAGCGTGTA | 0.424
TGACTAAAGGTA | 0.0653
TGAATTGAAGTA | -0.158
TGATTACTCGTA | -0.0203
TGAGTATCCGTA | -0.118
TGAACACCGGTA | 0.0511
TGACCTAATGTA | 0.247
TGAGTTGACGTA | -0.105
TGATATTAGGTA | -0.11
TGAGCAAAAGTA | -0.0343
TGAGACTAGGTA | 0.024
TGAAAGGAGGTA | 0.164
TGAATCCCAGTA | -0.105
TGATTGTGTGTA | 0.123
TGAGCCTACGTA | -0.0295
TGACTCATGGTA | 0.443
TGACCGTCGGTA | 0.0131
TGAAACGTGCTA | 0.74
TGAGGGTATGTA | 0.134
AGTCACGTGGTA | 0.893
TGAGATTATGTA | -0.0381
TGACAAATTGTA | 0.0668
